The supplement of paper PMC10369915
This is one part of the list. Rule as the data show it: active = 3.2 or more and inactive = the rest. Most of these values are background signal.

B1: SND1_Y178_R174W (peptide)
chain: IWDLKYTIENP
B2: SNX1_Y463 (peptide)
chain: SRVTQYERDFE
B3: SMARCC2_Y324 (peptide)
chain: GPSTPYTKSKR
B4: SOX11_Y113_Y116C (peptide)
chain: KHMADYPDCKY
B5: SMARCE1_Y73_Y73S (peptide)
chain: KPLMPSMRYSR
B6: SMS_Y134 (peptide)
chain: GRLVEYDIDEV
B7: SMARCA2_Y1190_A1188P (peptide)
chain: LAAPKYKLNVD
B8: SORL1_Y139_Y141C (peptide)
chain: DVYVSYDCGKS
B9: SOX10_Y171_P175A_YF (peptide)
chain: KDHPDYKFQAR
B10: SORL1_Y136_Y141C_YF (peptide)
chain: KSSDVYVSFDC
B11: SMC1A_Y714_R711Q (peptide)
chain: QMQLKYSQSDL
B12: SOX10_Y171_P175A (peptide)
chain: KDHPDYKYQAR
B13: SMCHD1_Y283_YF (peptide)
chain: NKEAIYSGFIR
B14: SOX10_Y171 (peptide)
chain: KDHPDYKYQPR
B15: SMG1_Y2254_G2258S (peptide)
chain: PSELYYSKISP
B16: SOS1_Y618_YF (peptide)
chain: LTFHMYADPNF
B17: SOX10_Y171_P175R (peptide)
chain: KDHPDYKYQRR
B18: SNX1_Y463_D466N (peptide)
chain: SRVTQYERNFE
B19: SLCO1B1_Y645_YF (peptide)
chain: FIILIYAMKKK
B20: SORBS1_Y79 (peptide)
chain: RASSSYRETPS
B21: SOX10_Y171_Q174P (peptide)
chain: KDHPDYKYPPR
B22: SOX11_Y113 (peptide)
chain: KHMADYPDYKY
B23: SOX10_Y171_P175R_YF (peptide)
chain: KDHPDYKFQRR
B24: SNRNP200_Y540 (peptide)
chain: DFKIIYIAPMR
B25: SMG1_Y2254 (peptide)
chain: PSELYYSKIGP
B26: SMARCA2_Y1190 (peptide)
chain: LAAAKYKLNVD
B27: SORL1_Y136_Y141C (peptide)
chain: KSSDVYVSYDC
B28: SMG1_Y549_H546R (peptide)
chain: VARAVYQAVLS
B29: SMARCE1_Y73_Y73C_YF (peptide)
chain: KPLMPCMRFSR
B30: SLIT2_Y776_N775S (peptide)
chain: KELSSYKHLTL
B31: SMAD2_Y128_R133C (peptide)
chain: LPHVIYCRLWC
B32: SLCO1B1_Y645_L643F_YF (peptide)
chain: FIIFIYAMKKK
B33: SMG1_Y143_S144C (peptide)
chain: ERSMSYCDESR
B34: SMARCE1_Y73 (peptide)
chain: KPLMPYMRYSR
B35: SOS1_Y618_F623I (peptide)
chain: LTYHMYADPNI
B36: SMG1_Y2254_G2258S_YF (peptide)
chain: PSELFYSKISP
B37: SND1_Y178 (peptide)
chain: IRDLKYTIENP

Each binder was assayed against SHP2 C-SH2 domain E139D (assay: enrichment score (SH2-bound / input frequency) (ratio); bacterial display of known human phosphotyrosine sites (pTyr-Var adds point mutants) read by sequencing; higher = stronger binding; tyrosines were phosphorylated by kinases first). Details: peptide library: pTyr-Var.
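Also: displayed peptides selected on beads carrying the immobilized SH2 domain, with library peptides lacking any tyrosine serving as negative controls.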

Enrichment score, inactive:
B1 1.33
B2 0.625
B3 0.555
B4 0.373
B5 0.17
B6 0.923
B7 0.852
B8 0.667
B9 0.988
B10 0.931
B11 0.777
B12 0.876
B13 0.784
B14 0.716
B15 1.37
B16 1.74
B17 1.04
B18 0.864
B19 1
B20 0.501
B21 0.732
B22 0.694
B23 0.865
B24 1.7
B25 1.14
B26 0.709
B27 0.671
B28 0.684
B29 0.352
B30 0.774
B31 2.91
B32 0.811
B33 0.491
B34 0.213
B35 1.31
B36 1.46
B37 1.02

What follows are binders tested against SHP2 C-SH2 domain wild-type in the same assay as above. Details: peptide library: pTyr-Var.

Enrichment score, inactive:
B1 1.27
B2 0.624
B3 0.466
B4 0.955
B5 0.289
B6 0.981
B7 0.494
B8 0.723
B9 1.88
B10 1.18
B11 0.465
B12 1.14
B13 0.848
B14 0.741
B15 3.04
B16 1.82
B17 0.956
B18 0.726
B19 0.543
B20 0.61
B21 0.695
B22 0.665
B23 0.956
B24 1.44
B25 1.72
B26 0.737
B27 0.699
B28 0.864
B29 0.254
B30 0.541
B31 2.42
B32 0.357
B33 0.508
B34 0.188
B35 1.1
B36 2.61
B37 1.09

What follows are binders tested against SHP2 N-SH2 domain L43F in the same assay as above. Details: peptide library: pTyr-Var.

Enrichment score, inactive:
B1 1.33
B2 0.697
B3 0.538
B4 2.04
B5 0.244
B6 0.965
B7 0.943
B8 0.761
B9 0.857
B10 0.923
B11 0.529
B12 0.778
B13 0.912
B14 0.617
B15 2.3
B16 1.85
B17 1.05
B18 0.719
B19 0.374
B20 0.51
B21 0.71
B22 0.798
B23 0.777
B24 1.24
B25 1.42
B26 0.758
B27 0.713
B28 0.572
B29 0.248
B30 0.828
B31 2.58
B32 0.471
B33 0.555
B34 0.234
B35 1.33
B36 1.76
B37 1.17

What follows are binders tested against SHP2 N-SH2 domain T42A in the same assay as above. Details: peptide library: pTyr-Var.

Enrichment score, inactive:
B1 1.32
B2 0.555
B3 0.534
B4 0.377
B5 0.29
B6 0.766
B7 0.837
B8 0.598
B9 0.797
B10 0.952
B11 0.603
B12 0.908
B13 0.81
B14 0.577
B15 1.98
B16 2.81
B17 0.964
B18 0.743
B19 0.861
B20 0.557
B21 0.717
B22 0.836
B23 0.814
B24 1.62
B25 2.01
B26 0.515
B27 0.614
B28 1.19
B29 0.263
B30 0.751
B31 3.04
B32 0.819
B33 0.564
B34 0.278
B35 2.42
B36 1.86
B37 0.788

Each binder was assayed against SHP2 N-SH2 domain T52S in the same assay as above. Details: peptide library: pTyr-Var.

Enrichment score, inactive:
B1 1.15
B2 0.651
B3 0.485
B4 0.602
B5 0.228
B6 0.876
B7 0.572
B8 0.577
B9 0.711
B10 0.944
B11 0.42
B12 0.816
B13 0.866
B14 0.672
B15 1.75
B16 2.21
B17 1.17
B18 0.69
B19 0.761
B20 0.451
B21 0.754
B22 0.627
B23 0.915
B24 1.27
B25 0.803
B26 0.768
B27 0.698
B28 0.631
B29 0.25
B30 0.775
B31 2.89
B32 0.726
B33 0.591
B34 0.225
B35 1.19
B36 1.7
B37 0.65

What follows are binders tested against SHP2 N-SH2 domain wild-type in the same assay as above. Details: peptide library: pTyr-Var.

Enrichment score, inactive:
B1 1.92
B2 0.592
B3 0.496
B4 0.463
B5 0.34
B6 1.08
B7 0.762
B8 0.84
B9 0.898
B10 1.19
B11 0.704
B12 0.962
B13 0.818
B14 0.697
B15 1.75
B16 1.94
B17 1.16
B18 0.861
B19 0.826
B20 0.507
B21 0.863
B22 0.82
B23 0.81
B24 1.44
B25 1.19
B26 0.867
B27 0.657
B28 1.07
B29 0.308
B30 0.739
B31 2.17
B32 0.599
B33 0.446
B34 0.352
B35 1.12
B36 0.658
B37 1.19
